Laboratory results: publication PMC12136788
The other results are listed elsewhere or left out.

B1: chr10:68791452:68791550:+|3pUTR|ENSG00000060339|msi1_unk|FALSE|overlapping (ssRNA)
RNA: GGGAGUUCUACAGUCCGACGAUCCUAGCCUUCAAAUUAUUAAACACUCCUUGAGUGAAAUAAUUUUGCAUUGCAAAGUGUUUUAGGAUGAACUUUGUUAUAGUUUUAACUCCAAUAAAGUUCAUCAGUUUAAUUGACUGUAGUCAACAGAGGAUUGAGCAUCA
B2: chr9:128810308:128810409:+|3pUTR|ENSG00000107021|unk|total|mutant (ssRNA)
RNA: GGGAGUUCUACAGUCCGACGAUCUACAGAUUGAGCUGUAUGAAUUCAGCGGGUCUCACUCCAGAGGGUCAGAACGUUUGCUUCCGUUUUUUCAUCUGUUUUGUUCCUUGAGUCAGUGCUGUUGAUGACGAGUUGUCUUGAAUACAACAGAGGAUUGAGCAUCA
B3: chr19:57593639:57593745:+|3pUTR|ENSG00000171649|unk|total|mutant (ssRNA)
RNA: GGGAGUUCUACAGUCCGACGAUCUGAACCUUCUUAUUUCUCUACAUUCUUGCCAUACUUGGUAUGGUCCGUCUUUUUAAUUUCCGUUGUUUUAACCGCUGUAUAACCGCAUCUGUCUGUGAUUUUAUUGCAUUUUUCUGGUAUCAACAGAGGAUUGAGCAUCA
B4: chr4:186618492:186618593:-|CDS|ENSG00000083857|msi1|total|mutant (ssRNA)
RNA: GGGAGUUCUACAGUCCGACGAUCGUAAUCACUACAAAGGAGAGCCUCAUUGGCUUGGAAAAUGAAUUCUUCACUUUCUUUGUCCGAGCUGUGGAUAAUGGGUCUCCAUCAAAAGAAUCUGUUGUUCUUGUCUAUGUUAAAAUCCAACAGAGGAUUGAGCAUCA
B5: ENSG00000198589:be:win_4501|CDS|ENSG00000198589|bound_else_gene|NA|bound_elsewhere_windowed (ssRNA)
RNA: GGGAGUUCUACAGUCCGACGAUCAGAGAUCUUGACAGGCUUCUACAGGACAUGGAUAUUAAUCGGCUUAGGGCAGUUGUUUUCAGAGACAUAGAGGAUAGCAAACAAGCUCAAUUUUUAGCCUUGGCAGUAGUAUACUUUAUCCAACAGAGGAUUGAGCAUCA
B6: chr5:133074000:133074114:+|CDS|ENSG00000170606|unk|FALSE|unique (ssRNA)
RNA: GGGAGUUCUACAGUCCGACGAUCUCUUGCAUAUGGAAUCUAUAAGCAGGAUCUUCCUGCCUUAGAAGAGAAACCAAGAAAUGUAGUUUUUGUAGACAUGGGCCACUCUGCUUAUCAAGUUUCUGUAUGUGCAUUUAAUAGAGGCAACAGAGGAUUGAGCAUCA
B7: ENSG00000107863:be:win_5851|CDS_3pUTR|ENSG00000107863|bound_else_gene|NA|bound_elsewhere_windowed (ssRNA)
RNA: GGGAGUUCUACAGUCCGACGAUCAAAGCAGAGUUUCAUCCCUGUCUUUAAACUGGGGGUAUGUCCACUCUAGCAAGUAAAAAAACUACUGUUACACGUUCCAGUAACUCUGUCAAUAUUUUCUUGUAUCAGAAUUGUUAUUAUCAACAGAGGAUUGAGCAUCA
B8: chr11:8612036:8617995:-|three_prime_utr|ENSG00000166436|control|control|control (ssRNA)
RNA: GGGAGUUCUACAGUCCGACGAUCCCCAUACUGUCGACCAUUCCUCCCCAUCUUGCAGCUUAUCCUCUUCAGAGUGUGGAUGGUAGAUGAGUCUUGUUGAACUGUGUAGUGCUCUUCUUUGCCAUUUGCAUCUACAGCAUUUAUCAACAGAGGAUUGAGCAUCA
B9: chr7:139045324:139045425:-|3pUTR|ENSG00000105939|msi1|FALSE|bound_elsewhere (ssRNA)
RNA: GGGAGUUCUACAGUCCGACGAUCAGUUCAAAACCGCUGUCAUGGCCCCAUGUGAUCUCUCCCUCCCCUACCCCUCUAUCAUUUAGUUUCUUCUGCGCAAGCCACUCUGGCUUCCUUUCAGUUUUGUGGUUCCCAUUUUUAGCUCAACAGAGGAUUGAGCAUCA
B10: ENSG00000078043:stop:overlap|stop_codon|ENSG00000078043|stop_codon|NA|stop_codon (ssRNA)
RNA: GGGAGUUCUACAGUCCGACGAUCGGAAAUGCAUCUUUAUGUCAGAAACACAAAGCAGCCCAACCAAAGGGUUUGUUAAUUUAUAGUUCACUAUUGUUCAUUACCCUUGCAACUAAUUGCUCUUGGAUAGAUUUAUAAAUGUCUCAACAGAGGAUUGAGCAUCA
B11: ENSG00000198589:be:win_3451|CDS|ENSG00000198589|bound_else_gene|NA|bound_elsewhere_windowed (ssRNA)
RNA: GGGAGUUCUACAGUCCGACGAUCGAUGACAAAUUAAUAUUUCAAGAAGGAAAACCUGUUACUGAAAAGCAAACUGAUACUGAAACUCAAGAUUCUAAAGAUUCUGGAAUUCAGACUAUGACAGCAUCAGGGUCUUCAGCUAUGCAACAGAGGAUUGAGCAUCA
B12: chr6:75256125:75256201:-|CDS_3pUTR|ENSG00000112697|msi1_unk|total|mutant (ssRNA)
RNA: GGGAGUUCUACAGUCCGACGAUCUUUGGGGAUUGCUUACAUCGCUGUUGGAUCCAUCUCCUUCCUUCUGGGAGUUGUACUGCCCGUAAUUAAUCAUAAAUACCGAAACAGCCGUAAUACAGCUGACAUUACCAUUUAAUUUUACAACAGAGGAUUGAGCAUCA
B13: chr14:106537809:106538116:-|CDS|ENSG00000211964|control|control|control (ssRNA)
RNA: GGGAGUUCUACAGUCCGACGAUCUGGGUCCGCCAGGCUCCAGGGAAGGGGCUGGAGUGGGUUUCAUACAUUAGUAGUAGUGGUAGUACCAUAUACUACGCAGACUCUGUGAAGGGCCGAUUCACCAUCUCCAGAGACAACGCCCAACAGAGGAUUGAGCAUCA
B14: chr7:13894654:13894755:-|3pUTR|ENSG00000006468|msi1|total|mutant (ssRNA)
RNA: GGGAGUUCUACAGUCCGACGAUCUAUUCUCUUUCAUGCUGAAUUUACUAUGACCAUUUAUAAGCAGUGCAGUUAACUACAGACCGCAUUUCAGGACAAAACCGAUGACUCAAACCAUUUAUUGCUUAAAAAACCGCUUACGCCCAACAGAGGAUUGAGCAUCA

Biological target: MSI1 full-length (mouse, UniProt Q61474 1-362)
Chain of UniProt Q61474 (Q61474 whole entry): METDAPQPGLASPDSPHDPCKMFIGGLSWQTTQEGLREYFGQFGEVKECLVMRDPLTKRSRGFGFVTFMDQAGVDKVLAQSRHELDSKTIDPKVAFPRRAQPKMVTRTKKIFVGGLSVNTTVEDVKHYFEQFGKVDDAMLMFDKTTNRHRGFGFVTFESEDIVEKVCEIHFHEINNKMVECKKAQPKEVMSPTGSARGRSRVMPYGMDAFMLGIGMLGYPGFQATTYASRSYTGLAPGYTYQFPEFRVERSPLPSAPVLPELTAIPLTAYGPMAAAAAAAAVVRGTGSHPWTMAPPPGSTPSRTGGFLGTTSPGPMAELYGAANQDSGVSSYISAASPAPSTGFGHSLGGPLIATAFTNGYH
Assay: nsRBNS (natural sequence RNA bind-n-seq); RBNS binding buffer (assumed for nsRBNS): 25 mM Tris pH 7.5, 150 mM KCl, 3 mM MgCl2, 0.01% Triton X-100, 500 ug/ml BSA, 20 U/ml SUPERase-In, 4 C; UNK is unkempt and MSI1 is Musashi-1; names of the RNAs are library labels; protein concentration not given here; high values mean tight binding

Binder	binding signal [enrichment R]
B1	0.703
B2	0.321
B3	1.4
B4	0.378
B5	5.05
B6	3.34
B7	0.329
B8	0.459
B9	11.3
B10	1.97
B11	0.364
B12	0.387
B13	0.494
B14	0.94
